The densities may have been worked out from excess volumes.
Assay: xn = mol fraction of the nth substance listed
Conditions: 100 kPa

CS(C)=O + CCCC[n+]1ccn(C)c1.[Cl-]
Conditions	mass density [kg/m3]
313.15 K, x2 = 0	1081.4

CS(C)=O + CC[n+]1ccn(C)c1.[Cl-]
x2 = 0
Conditions	mass density [kg/m3]
298.15 K	1095.4
303.15 K	1092.4

CCCC[n+]1ccn(C)c1.[Cl-] + CS(C)=O
mass density [kg/m3]
Conditions	x1 = 0.0341	x1 = 0.2433	x1 = 0.3705	x1 = 0.4746	x1 = 0.7115	x1 = 0.843	x1 = 0.9445
298.15 K	–	–	–	1090.5	–	–	–
313.15 K	1083.8	1086.8	1084	1081.4	1074.6	1070.3	1066.9

CC[n+]1ccn(C)c1.[Cl-] + CS(C)=O
mass density [kg/m3]
Conditions	298.15 K	303.15 K	308.15 K	313.15 K
x1 = 0.0194	–	–	1088.1	1083.6
x1 = 0.0453	1099.3	–	1090.8	–
x1 = 0.0677	1101.3	1098.5	1093.3	1089.4
x1 = 0.0984	1104.2	1101.6	1096.8	–
x1 = 0.1236	1106.6	1104.1	1099.8	1096.3
x1 = 0.1619	1110.4	1108	1104.2	1101
x1 = 0.2143	–	1113.5	1110.1	1107.3
x1 = 0.2927	–	–	–	1116
x1 = 0.3737	1129.2	1128.3	1126	1123.9
x1 = 0.4429	1133.8	1133.3	1131.1	1129.3
x1 = 0.5264	1137.9	1137.6	1135.6	1134
x1 = 0.6072	–	1139.9	1137.8	1136.3
x1 = 0.7477	–	1138.7	1136.4	1134.7
x1 = 0.7986	1137.9	1136.7	1134.1	1132.2
x1 = 0.8501	–	1133.7	1130.9	1128.8
x1 = 0.8944	1132.7	1130.5	1127.4	1124.9
x1 = 0.9396	1129.3	1126.4	1123.1	1120.3
x1 = 0.9694	1126.7	1123.4	1120	1116.8
x1 = 1	1123	1119.5	1115.4	1111.9
x2 = 0.0071	1123.9	1120.1	1116.5	1112.9
